This note sets out measurements from article PMC5892938.

This is one part of the list. At the low end of the ranking the order means little.

This test has as its target GST-SBP-SLBP (stem-loop binding protein) (UniProt Q14493). The test is described as follows: targeted RNA Bind-n-Seq.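 Also: DESeq read counts versus GST-SBP nonspecific binding control pulldown.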 The conditions noted are these: RBNS binding buffer: 25 mM Tris pH 7.5, 150 mM KCl, 3 mM MgCl2, 0.1% Tween, 0.5 mg/mL BSA, 1 mM DTT; 27 nM protein, 750 pM RNA pool; temperature not stated; high values mean tight binding.
For “GGUCACGUCUCAAUCAACUCAACUUCAGGAGUUUGCUCCUGUAAUUUCAACAGCUCGCAGUCAAG”, the binding signal (log2 fold change) was -0.0524. As for “GGUCACGUCUCAAUCAACUCCUUAGAGGGGGGGAAAACCCCUUUGCCCUCGAAAUCAACAGCUCGCAGUCAAG”, the figure is -0.0521. As for “GGUCACGUCUCAAUCAACUCUAUCUCCAGGGAAAACCCUGGUAAUUUCAACAGCUCGCAGUCAAG”, the figure is -0.102; as for “GGUCACGUCUCAAUCAACUCAUCCCCCAGGGAAAACCCUGGUUAAUUCAACAGCUCGCAGUCAAG”, -0.334; as for “GGUCACGUCUCAAUCAACUCAUCUUCCAGGGAAAGCCCUGGCAUACUCAACAGCUCGCAGUCAAG”, -0.0497. The value for “GGUCACGUCUCAAUCAACUCAACUCCAGGAGUUUACUCCUGCUUUUUCAACAGCUCGCAGUCAAG” was 0.0965.

Consider “GGUCACGUCUCAAUCAACUCUUCUUCAGGAGUUUUCUCCUGUUAUUUCAACAGCUCGCAGUCAAG”, for which the binding signal (log2 fold change) was -0.0547.

“GGUCACGUCUCAAUCAACUCCCCAGAGGGGGGGAAAACCCCUUUACCCUCGUCCUCAACAGCUCGCAGUCAAG”: the binding signal (log2 fold change) was -0.0309.

In the case of “GGUCACGUCUCAAUCAACUCUACUUCAGGAGUUUUCUCCUGUUAUCUCAACAGCUCGCAGUCAAG”, the binding signal (log2 fold change) is -0.00831. On to “GGUCACGUCUCAAUCAACUCAUCUCCAGGAGUUUCCUCCUGUUUAUUCAACAGCUCGCAGUCAAG”, for which the binding signal (log2 fold change) turned out to be 0.016. Consider “GGUCACGUCUCAAUCAACUCAUUCCCAGGAGUUUACUCCUGCUUACUCAACAGCUCGCAGUCAAG”, for which the binding signal (log2 fold change) was found to be 0.081. Take “GGUCACGUCUCAAUCAACUCUAUCUCCAGGGAAAACCCUGGUAUAUUCAACAGCUCGCAGUCAAG”: the binding signal (log2 fold change) was -0.118. The value for “GGUCACGUCUCAAUCAACUCAAUCUCAGGAGUUUGCUCCUGUUUUCUCAACAGCUCGCAGUCAAG” was 0.19. As for “GGUCACGUCUCAAUCAACUCUUCCUCCAGGGAAAACCCUGGUAAACUCAACAGCUCGCAGUCAAG”, the figure is 0.339; as for “GGUCACGUCUCAAUCAACUCACUAGAGGGGGGGAAAACCCCUUUACCCUCCAAUUCAACAGCUCGCAGUCAAG”, -0.189. As for “GGUCACGUCUCAAUCAACUCGUCUUCAGGAGUUUCCUCCUGCAUAUUCAACAGCUCGCAGUCAAG”, the figure is 0.126; as for “GGUCACGUCUCAAUCAACUCUACUUCCAGGGAAACCCCUGGCUAAUUCAACAGCUCGCAGUCAAG”, 0.153.

For the sequence “GGUCACGUCUCAAUCAACUCAUUCCCCAGGGAAAACCCUGGUAUUCUCAACAGCUCGCAGUCAAG”, the binding signal (log2 fold change) came to 0.0986. The value for “GGUCACGUCUCAAUCAACUCAUCCUCAGGAGUUUUCUCCUGCUUUCUCAACAGCUCGCAGUCAAG” was -0.0126; that for “GGUCACGUCUCAAUCAACUCAUCGUCCAGGGAAAACCCUGGUUUUCUCAACAGCUCGCAGUCAAG” was 0.033; that for “GGUCACGUCUCAAUCAACUCCAUCGAGGGGGGGAAAACCCCUUUACCCUCAAUUUCAACAGCUCGCAGUCAAG” was -0.00794.
